According to the supplement of paper PMC11417369:
± gives the standard deviation of the averaged measurements. Some of the results follow.

Tested on: PfAP2-EXP AP2 domain (GST-tagged)
Assay: gcPBM binding intensity (ln(normalized median fluorescence intensity)); higher = stronger DNA binding
Outline: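 Using an Agilent 4 × 180k array, primer-extended double-stranded 36-bp intergenic genomic probes and negative controls were exposed for 1 h to GST-fused P. falciparum DNA-binding domains expressed in E. coli. Binding was carried out in 1× PBS with 1% milk, 0.2 mg/ml BSA, 0.5% salmon testes DNA and 0.03% Triton X-100, and protein was detected with Alexa488 anti-GST antibody and a 488 nm scan. Binding intensity is the highest Masliner-normalised natural-log median intensity across replicate spots of either probe orientation.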

Row | Sequence | gcPBM binding intensity (ln)
1 | AAAAAAAAATAAAATAAAATAAAATAAAATAATATA [CACACA_negctrl_site1798] | 8.12 ± 0.44
2 | ATAATATATATTAATACACACACACCGATATATATA [CACACA_site9261] | 8.93 ± 0.54
3 | GACCAATACTTTAAAAGTACAAACCTTATTTTATTT [XGTACX_site2718] | 8.71 ± 0.23
4 | AAAAAAAAAAAAAAATGTACATTATACACATTATAT [XGTACX_site6824] | 8.52 ± 0.33
5 | TAGCCAAAATATAATTTACACACTTATTAAATAATT [CACACA_site7963] | 8.11 ± 0.37
6 | AATTATGCATTTGTCACACATATATATTACACTTGC [CACACA_site5324] | 8.86 ± 0.47
7 | ATATAATATTGAGTTTGTACATATATATATGAAGAT [XGTACX_site4444] | 8.62 ± 0.26
8 | AAATAAATATATATATGTACATACAAATACACGGTA [XGTACX_site8510] | 8.94 ± 0.35
9 | AAGAAAAATGTCATATGATATCATATATTTTATAAT [TGCATGCA_negctrl_site296] | 8.31 ± 0.39
10 | ATTTTCCCTTGTTTTACACACGTGCTGATATGAGAT [CACACA_site2164] | 9.46 ± 0.62
11 | TAATTAAGCATAAATATAATTTTATATTTTATTTCC [XGTACX_negctrl_site321] | 7.91 ± 0.24
12 | TGCAGTCTGGAGAAAAGTACATAGTATCTGGTAGCT [XGTACX_site2547] | 8.65 ± 0.42
13 | TAACATAGCAATGTTTCACACACAAGAAAAAATACA [CACACA_site8747] | 8.84 ± 0.45
14 | ATATATGTATATATTTGTACATATAATATTTTTTAA [XGTACX_site6345] | 8 ± 0.25
15 | ATTTGTAATTTATTCAAACACACAATTTGGACCTTT [CACACA_site1062] | 8.22 ± 0.4
16 | TATTCACATACAGAAACACACACATATATATAAATT [CACACA_site9232] | 8.68 ± 0.56
17 | TTTGTGTGTGCGTGTGCATGTTGTTTTTTTCTATAA [TGCATGCA_site17] | 9.18 ± 0.45
18 | AATATAATAACTTATTGTACGAAATTATATCACCTT [XGTACX_site7883] | 8.37 ± 0.34
19 | AAAAAATAAAAAAAAACACACACATACAAGCATATA [CACACA_site8451] | 8.68 ± 0.49

Row | Sequence | gcPBM binding intensity (ln)
20 | AGAGAGAGAAATACAAGTACATGTGAAACCAATCTA [XGTACX_site2767] | 8.82 ± 0.38
21 | AAAAAAAACAAATACACACGCACACCGAAAAAAAAA [CACACA_site803] | 8.53 ± 0.54
22 | AAAAAAAAAAAAATTGCACACAAAAAAAAAAAAAAA [CACACA_site8644] | 8.28 ± 0.41
23 | TTCAACATAATATGCACACAAAAATTATGGAACGAA [CACACA_site2111] | 8.89 ± 0.38
24 | AAAAAAAAATACCTACGTACATATATATATTATATA [XGTACX_site3983] | 8.46 ± 0.33
25 | AAAAAAAAAAAACACACACACACACCCACAAAATAT [CACACA_site1447] | 8.7 ± 0.62
26 | CAGACAATAAAGAAGTGTACACATATATCAATAAAA [XGTACX_site4515] | 8.92 ± 0.34
27 | CTTTATCTTCTCACGAAGATTGAATAAGGTATTCTT [XGTACX_negctrl_site307] | 8.18 ± 0.49
28 | TTAATGCACTTTATTACACACACTAGTTCATTACCT [CACACA_site2294] | 9.255 ± 0.049
29 | TATATTATAATTTGAAGTACATTTTAAATTAACTAA [XGTACX_site1013] | 8.08 ± 0.24
30 | ATATAATAGTATATATGTACATATATTTAAATACTA [XGTACX_site1135] | 8.45 ± 0.35
31 | TGTAAAAAATTTAACACACACATATATAAATATGTA [CACACA_site7261] | 8.15 ± 0.36
32 | CATATACATACACATACACACATACACCCATACACA [CACACA_site8514] | 8.77 ± 0.55
33 | AATATATATTTATGTACACACTCCAATACAGATACA [CACACA_site5481] | 8.79 ± 0.35
34 | AGTAAATAATTATATACATGCATTTACTAATATTTA [TGCATGCA_site952] | 8.69 ± 0.23
35 | ATATGACGTAGTGGTGTACACACATGGTACCTTTAT [CACACA_site8436] | 9.1 ± 0.53
36 | TTCGTTCTTTTATGCACACTCAACATATAAATTAAA [CACACA_site1209] | 9 ± 0.35
37 | TTATAATATATATGTAGTACTGTTTTTTTCTATTTT [XGTACX_site7749] | 8.59 ± 0.52
38 | TATTATTTTAAAAATGCATGTTCATATGAAATAATA [TGCATGCA_site969] | 8.88 ± 0.45

Row | Sequence | gcPBM binding intensity (ln)
39 | TGTACAAATATGTACACACACACATATATATATATA [CACACA_site584] | 9.95 ± 0.31
40 | ATACTATTATATATATGTACATATATATGATGCTCT [XGTACX_site1771] | 8.73 ± 0.4
41 | AAGGAGCCTATGAACACACACATGTACATATATTAA [CACACA_site4084] | 8.58 ± 0.49
42 | TTTGTATTAAAAAAAAAAAAAAAAAAAATGAATAAA [TGCATGCA_negctrl_site292] | 8.14 ± 0.47
43 | TTTTTTTTTTTTTTTTTTTTTTTTCATTTGATATTA [TGCATGCA_negctrl_site112] | 7.89 ± 0.58
44 | ATAACGGAAAAAAAAAGTACATGATATAAACATGAA [XGTACX_site8428] | 8.6 ± 0.51
45 | AAAAATAAGATATATACACACATATAAATATAAATA [CACACA_site7396] | 8.51 ± 0.38
46 | TTATTTATTCTATGTGCATGTTATTTTTTTTTTTCG [TGCATGCA_site262] | 9.03 ± 0.35
47 | ATAAAATTATCTACATGTACTCATATATATTTGTTT [XGTACX_site5911] | 9.03 ± 0.45
48 | AGAGAGAAAGTTATAACATGCAACAATTTTTAGAAG [TGCATGCA_site1] | 8.94 ± 0.43
49 | TATATATATATATGTGGTACATAAAATTATTATTTT [XGTACX_site4554] | 10.1 ± 0.43
50 | CTTTAAACCCTGAACACACACAAATACACCCAAAAA [CACACA_site4297] | 8.81 ± 0.42
51 | TTTTTATGTGTATATTATTACATTTACATCTTTAAC [CACACA_negctrl_site1676] | 8.54 ± 0.43
52 | ACAAGACAACAAGGAAGTACTCATAAATATATTTGG [XGTACX_site1423] | 8.83 ± 0.44
53 | CTCACATATATATATAGTACAATTTTTTTTTTTTTT [XGTACX_site5999] | 8.47 ± 0.42
54 | ATGTAGAATTGTAAATGTACATGAAACACATATTCA [XGTACX_site3436] | 8.79 ± 0.34
55 | TATATATATATATTATGTACATATAAATATATTTTT [XGTACX_site1509] | 9.71 ± 0.28
56 | AAGAAAAATACTACGTGTACCAAACTTCCTACCAAC [XGTACX_site1426] | 8.74 ± 0.52
